Data published in ChEMBL document CHEMBL4888484, “Replenishing the malaria drug discovery pipeline: Screening and hit evaluation of the MMV Hit Generation Library 1 (HGL1) against asexual blood stage Plasmodium falciparum ,using a nano luciferase reporter read-out” (2022).
Out of some 150,000 compounds screened, about 540 (0.36%) showed an effect of 50% or more. This is one part of the list.

Test system: Plasmodium falciparum
Experiment: Primary screen in NF54 nanoGlo assay, in single point, at 2uM, 72h; a lower Z score goes with more inhibition
Assay type: functional, Erythrocyte
Conditions: timepoint 72 hour

In order of falling “% Inhibition” value:
1. Cc1nc(N)sc1-c1ccn(C[C@H]2CCCCO2)n1  11%
2. CCCNc1ncc(CN2CCCCC[C@@H]2CO)cn1  10%
3. Cc1nnsc1C(=O)N1C[C@@H](F)C[C@H]1CNC(=O)CC(C)(C)C  9%
4. Cc1[nH]ncc1-c1cc(-c2ccccc2)c2ccccc2n1  8%
5. COCCNc1nc(CC(=O)N2Cc3ccccc3CO2)cs1  7%
6. COc1ncccc1NC(=O)COc1c[nH]c(C)cc1=O  4%
7. C[C@H](NS(=O)(=O)C1CCOCC1)c1cccc(-n2cccn2)c1  4%
8. c1sc(C2CN3CCCC3CO2)nc1C1CCCC1 (stereo not drawn)  3%
9. C#CCCC1(CCC(=O)N2CCc3cccc(F)c3[C@@H]2C)N=N1  3%
10. O=C([C@H]1CCCN(C2CCN(c3nccc4occc34)CC2)C1)N1CCCC1  1%
11. O=C(c1n[nH]c2c1CCCC2)N1CCC(n2c(=O)[nH]c3ccsc3c2=O)CC1  1%
12. CC(=O)N[C@@H]1C[C@H]1c1c(F)cccc1Cl  1%
13. Cc1ccnc2nc(-c3nc(-c4ccc(Br)o4)no3)nn12  1%
14. COC(=O)CCc1nc(COc2cc(C)c(C#N)c(C)n2)no1  0%
15. O=C(N[C@@H]1CCC[C@@H]1n1ccnc1)c1ccnc2ccnn12  0%
16. O=C(NC[C@@H]1COc2ccccc2C1)c1ccccn1  -1%
17. Cn1nc2c(c1NC(=O)COc1ccc(F)c(F)c1)CCCC2  -1%
18. Cc1nccc([C@H](C)NC(=O)C2(S(C)(=O)=O)CCC2)n1  -1%
19. O=C(CN1CCC[C@H]1c1nc(-c2ccccc2Cl)c[nH]1)NCCc1cccs1  -2%
20. C[C@@H](Cc1ccc2c(c1)CCO2)NS(=O)(=O)Cc1ccccc1Cl  -2%
21. CC1(C)CCc2ccccc2[C@@H](NCc2nccc(N)n2)C1  -2%
22. CN(Cc1ccon1)C(=O)c1coc(CN2CCN(c3ccccc3F)CC2)n1  -2%
23. CC(C)C1CCCCC1NCCN1CCOCC1 (stereo not drawn)  -3%
24. CCN(Cc1noc(C)n1)C[C@H](C)c1ccccc1  -3%
25. COC(=O)c1ccc(CNC(C)(C)CC(=O)OC(C)(C)C)[nH]1  -4%
26. CCN(CC)c1nc(N)cc(-c2cncnc2)n1  -4%
27. CC(C)(C)c1nc(CNc2nnco2)cs1  -4%
28. CCc1nnsc1C(=O)N1CC[C@@](O)(c2ccccc2)[C@H]2CCCC[C@@H]21  -4%
29. C[C@@H](C(=O)Nc1ccccc1C(F)(F)F)n1cnc2c(N(C)C)ncnc21  -5%
30. COc1ccc2occ(CC(=O)Nc3ccc(S(=O)(=O)Nc4nccc(C)n4)cc3)c2c1  -6%
31. CN(C(=O)Cc1ccc2c(c1)CCCO2)[C@H]1CCNC1=O  -7%
32. COCCN(Cc1cnn(C)c1)C(=O)NCc1nc2c(C)cccc2o1  -8%
33. Cc1nc(O)cc(CNc2nc3c(s2)c(C)nn3C)n1  -8%
34. O=C(COc1ccccc1)NCC(=O)Nc1nnc[nH]1  -10%
35. CC(C)c1csc([C@@H](C#N)C(=O)c2cccn2C)n1  -10%
36. Cc1ccoc1C(=O)Nc1cc(C2CC2)nn1[C@H]1CCS(=O)(=O)C1  -11%
37. CC(C)CCNC1=Nc2ccccc2NC12CCCCCC2  -11%
38. O=C(Nc1cccc(F)c1)c1nnc([C@@H]2CCCN2C(=O)Nc2ccccc2C(F)(F)F)s1  -11%
39. O=C1c2ccccc2CCN1CCNC(=O)N1CCO[C@H]2CCC[C@H]21  -15%
40. COc1nc(C)cc(N(C)CC2(CO)CC2)n1  -17%
41. CO[C@@H](C)c1nc(Cn2cc(Cl)c(=O)[nH]c2=O)cs1  -18%
42. Cc1nn(C)c(S(=O)(=O)N2[C@@H]3CC[C@H]2C[C@@H](c2ccccc2)C3)c1C(F)F  -19%
43. COC[C@H](NC(=O)Nc1cc(N2CCCC2=O)ccc1C)c1ccnn1C  -28%
44. Cc1nn(Cc2ccc(Cl)cc2)c2nc(C3CC3)cc(C(=O)O)c12  -40%

In order of falling Z score:
1. Cc1nn(Cc2ccc(Cl)cc2)c2nc(C3CC3)cc(C(=O)O)c12  4.74
2. COC[C@H](NC(=O)Nc1cc(N2CCCC2=O)ccc1C)c1ccnn1C  2.79
3. Cc1nn(C)c(S(=O)(=O)N2[C@@H]3CC[C@H]2C[C@@H](c2ccccc2)C3)c1C(F)F  2.6
4. Cc1ccoc1C(=O)Nc1cc(C2CC2)nn1[C@H]1CCS(=O)(=O)C1  2.31
5. COc1nc(C)cc(N(C)CC2(CO)CC2)n1  2.11
6. CO[C@@H](C)c1nc(Cn2cc(Cl)c(=O)[nH]c2=O)cs1  1.82
7. O=C1c2ccccc2CCN1CCNC(=O)N1CCO[C@H]2CCC[C@H]21  1.74
8. O=C(COc1ccccc1)NCC(=O)Nc1nnc[nH]1  1.56
9. CC(C)CCNC1=Nc2ccccc2NC12CCCCCC2  1.46
10. COCCN(Cc1cnn(C)c1)C(=O)NCc1nc2c(C)cccc2o1  1.37
11. O=C(Nc1cccc(F)c1)c1nnc([C@@H]2CCCN2C(=O)Nc2ccccc2C(F)(F)F)s1  1.27
12. CC(C)c1csc([C@@H](C#N)C(=O)c2cccn2C)n1  1.2
13. CN(C(=O)Cc1ccc2c(c1)CCCO2)[C@H]1CCNC1=O  0.93
14. COc1ccc2occ(CC(=O)Nc3ccc(S(=O)(=O)Nc4nccc(C)n4)cc3)c2c1  0.89
15. C[C@@H](C(=O)Nc1ccccc1C(F)(F)F)n1cnc2c(N(C)C)ncnc21  0.77
16. CC(C)(C)c1nc(CNc2nnco2)cs1  0.73
17. Cc1nc(O)cc(CNc2nc3c(s2)c(C)nn3C)n1  0.73
18. CCN(CC)c1nc(N)cc(-c2cncnc2)n1  0.64
19. COC(=O)c1ccc(CNC(C)(C)CC(=O)OC(C)(C)C)[nH]1  0.59
20. CC(C)C1CCCCC1NCCN1CCOCC1 (stereo not drawn)  0.57
21. CCc1nnsc1C(=O)N1CC[C@@](O)(c2ccccc2)[C@H]2CCCC[C@@H]21  0.37
22. O=C(CN1CCC[C@H]1c1nc(-c2ccccc2Cl)c[nH]1)NCCc1cccs1  0.35
23. CN(Cc1ccon1)C(=O)c1coc(CN2CCN(c3ccccc3F)CC2)n1  0.34
24. CCN(Cc1noc(C)n1)C[C@H](C)c1ccccc1  0.33
25. C[C@@H](Cc1ccc2c(c1)CCO2)NS(=O)(=O)Cc1ccccc1Cl  0.29
26. Cn1nc2c(c1NC(=O)COc1ccc(F)c(F)c1)CCCC2  0.26
27. CC1(C)CCc2ccccc2[C@@H](NCc2nccc(N)n2)C1  0.16
28. Cc1nccc([C@H](C)NC(=O)C2(S(C)(=O)=O)CCC2)n1  0.11
29. O=C(NC[C@@H]1COc2ccccc2C1)c1ccccn1  0.09
30. COC(=O)CCc1nc(COc2cc(C)c(C#N)c(C)n2)no1  0.01
31. O=C(N[C@@H]1CCC[C@@H]1n1ccnc1)c1ccnc2ccnn12  0.01
32. Cc1ccnc2nc(-c3nc(-c4ccc(Br)o4)no3)nn12  -0.1
33. O=C([C@H]1CCCN(C2CCN(c3nccc4occc34)CC2)C1)N1CCCC1  -0.17
34. CC(=O)N[C@@H]1C[C@H]1c1c(F)cccc1Cl  -0.17
35. O=C(c1n[nH]c2c1CCCC2)N1CCC(n2c(=O)[nH]c3ccsc3c2=O)CC1  -0.23
36. c1sc(C2CN3CCCC3CO2)nc1C1CCCC1 (stereo not drawn)  -0.34
37. C#CCCC1(CCC(=O)N2CCc3cccc(F)c3[C@@H]2C)N=N1  -0.43
38. C[C@H](NS(=O)(=O)C1CCOCC1)c1cccc(-n2cccn2)c1  -0.52
39. COc1ncccc1NC(=O)COc1c[nH]c(C)cc1=O  -0.58
40. COCCNc1nc(CC(=O)N2Cc3ccccc3CO2)cs1  -0.73
41. Cc1[nH]ncc1-c1cc(-c2ccccc2)c2ccccc2n1  -0.96
42. Cc1nnsc1C(=O)N1C[C@@H](F)C[C@H]1CNC(=O)CC(C)(C)C  -1.42
43. CCCNc1ncc(CN2CCCCC[C@@H]2CO)cn1  -1.54
44. Cc1nc(N)sc1-c1ccn(C[C@H]2CCCCO2)n1  -1.84
